Changes are numbered by the printed parent chain; changes in the protein carry UniProt numbers. The list shows a part of the results.
T1: RBFOX1 RRM RbFoxmut (Fox-RRM*) (Homo sapiens, UniProt Q9NWB1 109-208, R118D;E147R;N151S;E152T)
T1 sequence: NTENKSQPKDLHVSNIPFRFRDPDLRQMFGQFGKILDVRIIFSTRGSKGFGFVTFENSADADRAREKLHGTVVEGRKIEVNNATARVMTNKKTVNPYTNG

B1: CUAUCUU (DNA:RNA)
RNA: GGGAGACCGGAAUUCAGAUUGUCCCUAUCUUUUAAAUCCCGUCGUAGCCACCA
DNA 1: CAATCTGAATTCCGGTCTCCC
DNA 2: TGGTGGCTACGACGGGATT
B2: UAAGGCA (DNA:RNA)
RNA: B1 RNA with C25U, U26A, U28G, C29G, U30C, U31A
DNA 1: CAATCTGAATTCCGGTCTCCC
DNA 2: TGGTGGCTACGACGGGATT
B3: UACAUAC (DNA:RNA)
RNA: GGGAGACCGGAAUUCAGAUUGUCCUACAUACUUAAAUCCCGUCGUAGCCACCA
DNA 1: CAATCTGAATTCCGGTCTCCC
DNA 2: TGGTGGCTACGACGGGATT
B4: GCCGCAA (DNA:RNA)
RNA: B3 RNA with U25G, A26C, A28G, U29C, C31A
DNA 1: CAATCTGAATTCCGGTCTCCC
DNA 2: TGGTGGCTACGACGGGATT
B5: AAGGAGG (DNA:RNA)
RNA: B3 RNA with U25A, C27G, A28G, U29A, A30G, C31G
DNA 1: CAATCTGAATTCCGGTCTCCC
DNA 2: TGGTGGCTACGACGGGATT
B6: CUAUAGC (DNA:RNA)
RNA: B1 RNA with C29A, U30G, U31C
DNA 1: CAATCTGAATTCCGGTCTCCC
DNA 2: TGGTGGCTACGACGGGATT
B7: AUAUACG (DNA:RNA)
RNA: B1 RNA with C25A, C29A, U30C, U31G
DNA 1: CAATCTGAATTCCGGTCTCCC
DNA 2: TGGTGGCTACGACGGGATT
B8: UUGCGGA (DNA:RNA)
RNA: B1 RNA with C25U, A27G, U28C, C29G, U30G, U31A
DNA 1: CAATCTGAATTCCGGTCTCCC
DNA 2: TGGTGGCTACGACGGGATT
B9: CUACGCU (DNA:RNA)
RNA: B1 RNA with U28C, C29G, U30C
DNA 1: CAATCTGAATTCCGGTCTCCC
DNA 2: TGGTGGCTACGACGGGATT
B10: CAUGCCA (DNA:RNA)
RNA: B1 RNA with U26A, A27U, U28G, U30C, U31A
DNA 1: CAATCTGAATTCCGGTCTCCC
DNA 2: TGGTGGCTACGACGGGATT
B11: CGUCAGA (DNA:RNA)
RNA: B1 RNA with U26G, A27U, U28C, C29A, U30G, U31A
DNA 1: CAATCTGAATTCCGGTCTCCC
DNA 2: TGGTGGCTACGACGGGATT
B12: AAUUGUU (DNA:RNA)
RNA: B1 RNA with C25A, U26A, A27U, C29G
DNA 1: CAATCTGAATTCCGGTCTCCC
DNA 2: TGGTGGCTACGACGGGATT
B13: AUAUGGA (DNA:RNA)
RNA: B1 RNA with C25A, C29G, U30G, U31A
DNA 1: CAATCTGAATTCCGGTCTCCC
DNA 2: TGGTGGCTACGACGGGATT
B14: GCACACC (DNA:RNA)
RNA: B1 RNA with C25G, U26C, U28C, C29A, U30C, U31C
DNA 1: CAATCTGAATTCCGGTCTCCC
DNA 2: TGGTGGCTACGACGGGATT
B15: AGAAACU (DNA:RNA)
RNA: B1 RNA with C25A, U26G, U28A, C29A, U30C
DNA 1: CAATCTGAATTCCGGTCTCCC
DNA 2: TGGTGGCTACGACGGGATT
B16: CGCCGCC (DNA:RNA)
RNA: B3 RNA with U25C, A26G, A28C, U29G, A30C
DNA 1: CAATCTGAATTCCGGTCTCCC
DNA 2: TGGTGGCTACGACGGGATT
B17: AAUAUCU (DNA:RNA)
RNA: B3 RNA with U25A, C27U, A30C, C31U
DNA 1: CAATCTGAATTCCGGTCTCCC
DNA 2: TGGTGGCTACGACGGGATT
B18: GCGUUCG (DNA:RNA)
RNA: B1 RNA with C25G, U26C, A27G, C29U, U30C, U31G
DNA 1: CAATCTGAATTCCGGTCTCCC
DNA 2: TGGTGGCTACGACGGGATT
B19: GUAGGAG (DNA:RNA)
RNA: B1 RNA with C25G, U28G, C29G, U30A, U31G
DNA 1: CAATCTGAATTCCGGTCTCCC
DNA 2: TGGTGGCTACGACGGGATT
B20: CUUACAG (DNA:RNA)
RNA: B1 RNA with A27U, U28A, U30A, U31G
DNA 1: CAATCTGAATTCCGGTCTCCC
DNA 2: TGGTGGCTACGACGGGATT
B21: GAGCCCC (DNA:RNA)
RNA: B3 RNA with U25G, C27G, A28C, U29C, A30C
DNA 1: CAATCTGAATTCCGGTCTCCC
DNA 2: TGGTGGCTACGACGGGATT
B22: AUUCGAC (DNA:RNA)
RNA: B3 RNA with U25A, A26U, C27U, A28C, U29G
DNA 1: CAATCTGAATTCCGGTCTCCC
DNA 2: TGGTGGCTACGACGGGATT
B23: CUUGAUC (DNA:RNA)
RNA: B1 RNA with A27U, U28G, C29A, U31C
DNA 1: CAATCTGAATTCCGGTCTCCC
DNA 2: TGGTGGCTACGACGGGATT
B24: AAGCCAC (DNA:RNA)
RNA: B3 RNA with U25A, C27G, A28C, U29C
DNA 1: CAATCTGAATTCCGGTCTCCC
DNA 2: TGGTGGCTACGACGGGATT
B25: CCUAUGG (DNA:RNA)
RNA: B3 RNA with U25C, A26C, C27U, A30G, C31G
DNA 1: CAATCTGAATTCCGGTCTCCC
DNA 2: TGGTGGCTACGACGGGATT
B26: GUGAACU (DNA:RNA)
RNA: B1 RNA with C25G, A27G, U28A, C29A, U30C
DNA 1: CAATCTGAATTCCGGTCTCCC
DNA 2: TGGTGGCTACGACGGGATT
B27: GAGGGAG (DNA:RNA)
RNA: B3 RNA with U25G, C27G, A28G, U29G, C31G
DNA 1: CAATCTGAATTCCGGTCTCCC
DNA 2: TGGTGGCTACGACGGGATT
B28: AAGUGUA (DNA:RNA)
RNA: B1 RNA with C25A, U26A, A27G, C29G, U31A
DNA 1: CAATCTGAATTCCGGTCTCCC
DNA 2: TGGTGGCTACGACGGGATT
B29: GAUUUUU (DNA:RNA)
RNA: B1 RNA with C25G, U26A, A27U, C29U
DNA 1: CAATCTGAATTCCGGTCTCCC
DNA 2: TGGTGGCTACGACGGGATT
B30: CCCUAUG (DNA:RNA)
RNA: B1 RNA with U26C, A27C, C29A, U31G
DNA 1: CAATCTGAATTCCGGTCTCCC
DNA 2: TGGTGGCTACGACGGGATT
B31: GCGAUGA (DNA:RNA)
RNA: B3 RNA with U25G, A26C, C27G, A30G, C31A
DNA 1: CAATCTGAATTCCGGTCTCCC
DNA 2: TGGTGGCTACGACGGGATT

Biological target: T1, RBFOX1 RRM RbFoxmut (Fox-RRM*)
Assay: EMSA; HiTS-Eq, 1 nM pool, 10 min; buffer printed only for the single-RNA assays: 10 mM Tris pH 7.5, 150 mM NaCl, 3.4 mM EDTA, 0.001% NP-40, 30 C
Settings: tags: His6 N-terminal (pET28a); label: 5' 32P
Procedure, shortened: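 Purified wild-type or mutant RbFox RRM at increasing concentrations was equilibrated with 1 nM of 5′-radiolabelled RNA carrying 7 randomized nucleotides for 10 min in 50 µL. Unbound RNA was separated by 8% native PAGE and sequenced. Relative association constants came from read-count changes of each RNA species compared with the control reaction, normalised to the cognate motif.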

| Binder | binding signal |
| --- | --- |
| B1 | 0.0729 KA relative to UGCAUGU |
| B2 | 0.0856 KA relative to UGCAUGU |
| B3 | 0.0661 KA relative to UGCAUGU |
| B4 | 0.0714 KA relative to UGCAUGU |
| B5 | 0.0963 KA relative to UGCAUGU |
| B6 | 0.0868 KA relative to UGCAUGU |
| B7 | 0.159 KA relative to UGCAUGU |
| B8 | 0.0904 KA relative to UGCAUGU |
| B9 | 0.105 KA relative to UGCAUGU |
| B10 | 0.121 KA relative to UGCAUGU |
| B11 | 0.0862 KA relative to UGCAUGU |
| B12 | 0.135 KA relative to UGCAUGU |
| B13 | 0.0552 KA relative to UGCAUGU |
| B14 | 0.0578 KA relative to UGCAUGU |
| B15 | 0.0708 KA relative to UGCAUGU |
| B16 | 0.13 KA relative to UGCAUGU |

| Binder | binding signal |
| --- | --- |
| B17 | 0.0835 KA relative to UGCAUGU |
| B18 | 0.177 KA relative to UGCAUGU |
| B19 | 0.12 KA relative to UGCAUGU |
| B20 | 0.07 KA relative to UGCAUGU |
| B21 | 0.0485 KA relative to UGCAUGU |
| B22 | 0.0748 KA relative to UGCAUGU |
| B23 | 0.0591 KA relative to UGCAUGU |
| B24 | 0.0884 KA relative to UGCAUGU |
| B25 | 0.0949 KA relative to UGCAUGU |
| B26 | 0.0914 KA relative to UGCAUGU |
| B27 | 0.1 KA relative to UGCAUGU |
| B28 | 0.215 KA relative to UGCAUGU |
| B29 | 0.0888 KA relative to UGCAUGU |
| B30 | 0.101 KA relative to UGCAUGU |
| B31 | 0.107 KA relative to UGCAUGU |

— paper PMC9911399, “Two distinct binding modes provide the RNA-binding protein RbFox with extraordinary sequence specificity”
